Test results: PubChem BioAssay AID686979 (National Center for Advancing Translational Sciences (NCATS), 2013)
Where “and” joins values, the source holds several entries; their conditions need not be identical. Equal entries are not always repeated. In all, about 420,000 compounds went through this assay and about 50,000 (12%) were called active. Inconclusive results, whose numbers are uncertain, are shown with a selection of clear calls. Calls come from the whole dose curve; as a rule, active = well fitted inhibition curve with a large enough effect; inconclusive = small, poorly fitted or top-dose-only effect; inactive = flat fitted curve, though single readings scatter. Where the call is inconclusive, the potency comes from a doubtful curve fit.
% is set by controls: 0 for no effect and ±100 for the full control effect; potency is the fitted concentration of half-maximal effect; tags give direction and shape of the fitted curve.

Experiment: qHTS for Inhibitors of human tyrosyl-DNA phosphodiesterase 1 (TDP1): qHTS in cells in presence of CPT; note: nearly all actives have a fitted effect of over 55% in size
Details: chicken DT40 Tdp1-/-;hTDP1 cells + 20 nM CPT, ATP luminescence, 48 h; activity change, negative = growth inhibition: at 46.2 µM (top of the series) unless noted
Procedure, shortened: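 Chicken DT40 Tdp1-/- cells stably complemented with human TDP1 were seeded at 400 cells/well in medium containing 20 nM camptothecin, exposed to pin-transferred compounds, and grown at 37 °C for at least 48 hr. Viability was read as ATP luminescence.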
For `COc1ccccc1CNC(=O)c1cccs1`, the Potency was “inactive”. With `COc1ccccc1NC(=O)N1CCCC1C(=O)NCc1ccccc1Cl` (centres undefined) the Potency was “inactive”. In the case of `Cc1ccc(/C=C2/C(=N)N3N=C(CC(=O)N4CCCC4)SC3=NC2=O)o1`, the Potency is reported as inconclusive: 29.1 µM [inhibitor, single point]. For `O=C(NCc1cc(Br)cc(Br)c1OC(=O)c1ccccc1[N+](=O)[O-])c1ccccc1`, the Potency was inconclusive: 16.4 µM [inhibitor, single point]. For `Cc1cccc(CSc2nc3c(sc4ccccc43)c(=O)n2CCC(=O)NC(C)C)c1`, the Potency was active: 4.61 µM. In the case of `CCc1ccc(NC(=S)NCc2ccccc2)cc1`, the Potency is reported as “inactive”. For `CO/N=C/CC(=O)c1ccc([N+](=O)[O-])c(CS(=O)(=O)c2ccc(Cl)cc2)c1`, the Potency was inconclusive: 29.1 µM [inhibitor, single point]. In the case of `COC(=O)Cc1ccc(NC(=S)N2CCN(c3cccc(O)c3)CC2)cc1`, the Potency is reported as active: 16.4 µM. With `Cn1c(=O)n(C)c2cc(S(=O)(=O)Nc3cc(Cl)ccc3O)ccc21` the Potency was “inactive”. In the case of `O=C(OCN1C(=O)c2ccccc2C1=O)c1cccc(S(=O)(=O)N2CCOCC2)c1`, the Potency is reported as “inactive”. For `Cc1cc(C=O)cc(C)c1[N+](=O)[O-]`, the Potency was inconclusive: 14.1 µM [inhibitor, single point]. With `CCOc1ccc(CC(=O)Nc2c(C(=O)Nc3ccccc3)oc3ccccc23)cc1OCC` the Potency was inconclusive: 23.1 µM [inhibitor, partial curve, poor fit]. With `Cc1cccc(S(=O)(=O)NNC(=O)Cc2cccn2C)c1` the Potency was inconclusive: 14.6 µM [inhibitor, partial curve]. For `Cc1ccc(C2=NN(C(=O)CNCCO)C(c3cccs3)C2)cc1` (centres undefined), the Potency was inconclusive: 2.91 µM [inhibitor, single point]. For `CCC(Sc1nc(-c2ccccc2)cc(=O)[nH]1)C(=O)O` (centres undefined), the activity change, negative = growth inhibition was inconclusive: -8.28% [inhibitor]. In the case of `CCN(CC1COc2ccccc2O1)C(=O)c1ccc(Cl)c(S(=O)(=O)N2CC(C)OC(C)C2)c1` (centres undefined), the Potency is reported as active: 7.31 µM. For `CN1CCCN(C(=O)/C=C/c2ccc(Cl)cc2Cl)CC1`, the Potency was inconclusive: 29.1 µM [inhibitor, single point]. For `Cc1ccc(S(=O)(=O)c2cnc(SCC(=O)Nc3cccc(Cl)c3)nc2N)cc1C`, the Potency was inconclusive: 29.1 µM [inhibitor, single point]. In the case of `O=C(NCCCN1CCOCC1)c1ccc2c(c1)N(Cc1ccc(Cl)cc1)C(=O)c1ccccc1S2=O` (centres undefined), the Potency is reported as inconclusive: 5.8 µM [inhibitor, single point]. For `COc1ccc(C(=O)O/N=C(\N)c2ccccc2)cc1OC`, the Potency was inconclusive: 29.1 µM [inhibitor, single point]. In the case of `N#CCCn1cc(C=C(C#N)C#N)c(-c2ccc(Cl)cc2)n1`, the Potency is reported as active: 16.4 µM. For `Cc1occc1C(=O)N1CCN(C(c2ccccc2)c2ccccc2)CC1`, the Potency was inconclusive: 29.1 µM [inhibitor, single point]. With `S=C(NCCc1ccccc1)N/N=C/c1c(Cl)cccc1Cl` the Potency was inconclusive: 20.6 µM [inhibitor, single point]. With `Cc1noc(C)c1C(=O)N1CCC2(CCN(Cc3ccc(C#N)cc3)CC2)CC1` the Potency was “inactive”. With `CC(C)c1c(O)ccc2c1CCC1[C@@](C)(CO)CCC[C@@]21C` (some centres undefined) the Potency was inconclusive: 29.1 µM [inhibitor, single point]. In the case of `Cn1c(=O)c(-c2cccc(C#N)c2)nc2cnc(Oc3ccccc3)nc21`, the Potency is reported as “inactive”. For `CCc1c(C)c2c(C)nn(-c3ccccc3)c2oc1=O`, the Potency was “inactive”. With `CCOc1ccc(S(=O)(=O)/N=C(\N)c2ccccc2)cc1` the Potency was active: 23.1 µM. With `CCOC(=O)CNC(=O)CSc1nnc(Cn2c(=O)sc3ccccc32)n1-c1ccccc1C` the Potency was inconclusive: 10 µM [inhibitor, partial curve]. In the case of `O=C(Nc1ccccc1)C1=C[C@H](c2ccccc2)C[C@H](OCc2ccc(CO)cc2)O1`, the Potency is reported as inconclusive: 29.1 µM [inhibitor, single point]. With `O=C(CNC(=O)c1sc2ccccc2c1Cl)NCc1ccccc1` the Potency was inconclusive: 18.4 µM [inhibitor, single point]. In the case of `CCOC(=O)c1cnc2c(C)cc(C)cc2c1Nc1cccc(C(=O)O)c1`, the Potency is reported as active: 13 µM. In the case of `Cc1cc([N+](=O)[O-])cnc1N1CCOCC1`, the Potency is reported as “inactive”. For `Oc1ccc(Nc2nc3ccccc3n3cnnc23)cc1`, the Potency was inconclusive: 16.4 µM [inhibitor, single point]. In the case of `CC(C)/C=C/C(=O)N1CCCC(N2CCN(c3ccccc3F)CC2)C1` (centres undefined), the Potency is reported as inconclusive: 29.1 µM [inhibitor, single point]. In the case of `Cc1ccc(/C=N/NC(=O)NC23CC4CC(CC(C4)C2)C3)o1`, the Potency is reported as “inactive”. For `COc1ccc(NC(=O)c2nc[nH]c2C(=O)N[C@@H](CC(C)C)C(=O)OC(C)(C)C)cc1`, the Potency was inconclusive: 25.9 µM [inhibitor, single point]. In the case of `CC(C)CN1CCC(=O)N(CCSc2ccc(Br)cc2)CC1`, the Potency is reported as active: 20.6 µM. With `OC(c1ccccc1)(c1nc(-c2cc(F)cc(F)c2)cs1)C(F)(F)F` (centres undefined) the Potency was inconclusive: 29.1 µM [inhibitor, single point]. For `COC(=O)[C@@]1(Cc2ccc(OC)cc2)[C@@H]2[C@@H](CC(=O)[C@H]2CC(=O)C(=O)N(C)C)CN1C(=O)c1ccccc1`, the Potency was active: 23.1 µM. For `Cc1ccc(C2c3c(-c4cc(C)ccc4O)n[nH]c3C(=O)N2Cc2ccco2)cc1` (centres undefined), the Potency was active: 23.1 µM. With `C=CCSc1nccc(=O)[nH]1` the Potency was inconclusive: 14.6 µM [inhibitor, partial curve]. With `Cc1oc2cc3c(C(=O)N4CCCCC4)c(C)oc3cc2c1C(=O)N1CCCCC1` the Potency was inconclusive: 18.4 µM [inhibitor, partial curve]. In the case of `Cc1ccc(-n2c(C)cc(C(=O)COc3c(CO)cc(F)cc3CO)c2C)cc1C`, the Potency is reported as active: 9.2 µM. For `O=C(NC(=S)N1CCN(C(c2ccccc2)c2ccccc2)CC1)c1ccc(S(=O)(=O)N2CCOCC2)cc1`, the Potency was inconclusive: 29.1 µM [inhibitor, single point]. In the case of `O=C(CN1CCN(CC(=O)Nc2ccc(OCc3ccccc3)cc2)CC1)Nc1ccc(F)cc1`, the Potency is reported as inconclusive: 29.1 µM [inhibitor, single point]. For `CC(NC(=O)Cn1cc2c(n1)CCCCC2)c1ccccc1` (centres undefined), the Potency was inconclusive: 16.4 µM [inhibitor, partial curve]. With `COCCN=C1NN=C(c2cc(C)n(CC3CCCO3)c2C)CS1` (centres undefined) the Potency was inconclusive: 25.9 µM [inhibitor, single point]. In the case of `Cc1ccc2c(c1)C(=O)C(=O)N2Cc1ccc(F)cc1`, the Potency is reported as active: 0.731 µM. In the case of `COCCNC(=O)C1(C)CCCN(C(=O)Cc2ccc3ccccc3c2)C1` (centres undefined), the Potency is reported as inconclusive: 29.1 µM [inhibitor, single point]. With `Cc1ccc(-n2ncc(C(=O)NCCCN3CCCCC3)c2C2CCN(C(=O)OC(C)(C)C)CC2)c(C)c1` the Potency was inconclusive: 7.31 µM [inhibitor, single point]. For `CN(CCn1ccnc1)Cc1cn(Cc2ccccc2)nc1-c1ccc2c(c1)OCO2`, the Potency was inconclusive: 23.1 µM [inhibitor, single point]. In the case of `Cc1csc(SCC(=O)Nc2sc3c(c2C#N)CCC3)n1`, the Potency is reported as inconclusive: 29.1 µM [inhibitor, single point]. In the case of `CC(=O)c1c(C)[nH]c(C(=O)Nc2cccc(C)n2)c1C`, the Potency is reported as “inactive”. With `O=c1cc(CN2CCN(S(=O)(=O)c3cccc(Cl)c3)CC2)c2ccc(O)cc2o1` the Potency was inconclusive: 29.1 µM [inhibitor, single point]. With `CC(C)C[C@H](NC(=O)c1nc[nH]c1C(=O)NCc1ccc(CNC(=O)OC(C)(C)C)cc1)C(=O)OC(C)(C)C` the Potency was active: 25.9 µM. With `COc1cc(OC)cc(-c2cc3ccc(F)cc3cn2)c1` the Potency was inconclusive: 29.1 µM [inhibitor, partial curve, poor fit]. In the case of `CC1(C)NC(=O)N(CCCCOc2cccc(C(F)(F)F)c2)C1=O`, the Potency is reported as inconclusive: 29.1 µM [inhibitor, single point]. In the case of `NC(=O)C1CCN(c2ccc3c(c2)S(=O)(=O)c2ccccc2C3=O)CC1`, the Potency is reported as inconclusive: 29.1 µM [inhibitor, single point]. In the case of `CCCn1c(N)c(C(=O)CSc2nnc(Cc3cccs3)n2C2CC2)c(=O)n(C)c1=O`, the Potency is reported as inconclusive: 20.6 µM [inhibitor, single point]. In the case of `c1nc(N2CCC3(CC2)OCCO3)c2c3c(sc2n1)CCCC3`, the Potency is reported as inconclusive: 29.1 µM [inhibitor, single point]. With `CCN1C(=O)[C@H]2[C@@H](c3ccc(C)cc3)N3C(=O)N(c4ccc(C)cc4)C(=O)[C@@]3(Cc3ccccc3)[C@H]2C1=O` the Potency was inconclusive: 25.9 µM [inhibitor, single point]. In the case of `Cc1ccc(C(=O)CN(C(=O)c2ccc(Cl)c(Cl)c2)N2C(=O)C3C4C=CC(C4)C3C2=O)cc1` (centres undefined), the Potency is reported as inconclusive: 20.6 µM [inhibitor, single point]. For `CCOC(=O)c1cc(C)nnc1C(=O)OCC`, the Potency was “inactive”. With `CC(=O)Nc1ccccc1-c1nc(CNC(=O)c2ccc(-n3cccn3)cc2)c(C)o1` the activity change, negative = growth inhibition was inactive: -13.3% [at 9.04 µM]. For `Cc1cc(Cl)ccc1OCC(=O)NNC(=O)c1cccnc1`, the Potency was “inactive”. For `COC(=O)c1ccc(CNC(=O)C2CCC(=O)N(CCN3CCOCC3)C2)cc1` (centres undefined), the Potency was “inactive”. With `Brc1ccc2[nH]c3nc(SCCN4CCOCC4)nnc3c2c1` the Potency was “inactive and inconclusive: 29.1 µM [inhibitor, single point]”. In the case of `Cc1[nH]nc2ncc(C(=O)c3ccccc3O)cc12`, the Potency is reported as active: 10.3 µM.
